# Data from PubChem BioAssay AID504845 (National Center for Advancing Translational Sciences (NCATS), 2011).
# Values joined by “and” are separate entries in the source; they are usually repeats but may differ in a detail not shown here. Equal entries are not always repeated. The whole screen tested about 390,000 compounds, of which about 150 (0.038%) were called active. Inconclusive results, whose numbers are uncertain, are shown with a selection of clear calls. The call rests on the fitted dose curve; in most records, active means well fitted inhibition curve with a large enough effect; inconclusive means small, poorly fitted or top-dose-only effect; inactive means no such curve, though single readings can be large or run the other way. A potency beside an inconclusive call is a rough fit, not a confirmed value.
# Biological target: Regulator of G-protein signaling 4 (Homo sapiens) (UniProt P49798)
# UniProt P49798, sequence (P49798 whole entry, looked up): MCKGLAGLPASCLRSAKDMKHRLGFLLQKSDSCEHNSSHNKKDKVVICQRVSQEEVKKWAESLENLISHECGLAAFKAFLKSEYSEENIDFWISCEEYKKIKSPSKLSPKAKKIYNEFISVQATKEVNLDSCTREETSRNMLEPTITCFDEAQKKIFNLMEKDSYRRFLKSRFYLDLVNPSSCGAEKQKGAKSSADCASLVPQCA
# Assay: Inhibitors of Regulator of G Protein Signaling (RGS) 4: qHTS; further: nearly all actives have a fitted effect of over 75% in size
# Details: Transcreener GDP fluorescence polarization, RGS4-accelerated GTP hydrolysis; series mostly up to 114 µM; activity change, negative = inhibition: at the top concentration
# Summary of the method: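 MLSMR compounds (23 nl, pin-transferred) preincubated 10 min at room temperature with a 500nM (2x) first reagent, then RGS4 at 900nM (2x) plus Transcreener GDP mix added; fluorescence polarization (620/688 nm) read before and after 90 min at 30 °C.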
# On the % scale 0 is the no-effect control and ±100 the full control effect; potency means the concentration at half of the fitted maximal effect; tags describe the fitted curve by direction and shape.
Compound,"activity change, negative = inhibition",Potency
Clc1ccc(CN2C3=NCCCN3c3ccccc32)cc1Cl,inactive: -0.698%,
O=S(=O)(Nc1ccc(Cc2ccncc2)cc1)c1ccc(Cl)cc1,inactive: 9.84%,
CCOC(=O)c1[nH]c(=O)[nH]c1CSCCO,,"inconclusive: 89.1 µM [inhibitor, single point]"
COc1ccc(S(=O)(=O)Nc2cccc(-c3ccc4nncn4n3)c2)cc1,inactive: -11.1%,
CCCN1CCN(c2ncnc3sc(C(=O)Nc4c(C)cc(C)cc4C)c(C)c23)CC1,inactive: 15.1%,
C=CCC1(CC=C)CCCN1C(=O)c1cc(COc2ccccc2SC)on1,,"inconclusive: 89.1 µM [inhibitor, single point]"
O=C1c2c(O)cc(O)cc2OC(c2ccc(O)c(O)c2)C1O (stereo unspecified),,"inconclusive: 26.7 µM [inhibitor, single point]"
Cc1ccc(S(=O)(=O)Nc2c(O)ccc3ccccc23)cc1,,"inconclusive: 79.4 µM [inhibitor, partial curve, poor fit]"
CCn1cc(C(=O)O)c(=O)c2cc(F)c(N3CCN(C(=O)Nc4ccccc4)CC3)cc21,inactive: -4.79%,
CC(C)N(C)CCOC(=O)c1ccccc1Br,,"inconclusive: 31.6 µM [inhibitor, partial curve, poor fit]"
CCN(C(=O)CSc1nc2scc(-c3ccccc3)c2c(=O)n1N)C1CCS(=O)(=O)C1 (stereo unspecified),,"inconclusive: 89.1 µM [inhibitor, single point]"
Cc1cc(NC(=O)C2CCN(S(=O)(=O)c3cccc4nsnc34)CC2)ccc1Br,inactive: 1.34%,
O=C(Nc1nc2ccccc2[nH]1)c1ccc(Cl)c(S(=O)(=O)N2CCCC2)c1,inactive: 2.18%,
CC(=O)Nc1ccc(NC(=O)C2CCC(N3C(=O)C4C5C=CC(C6CC56)C4C3=O)CC2)cc1 (stereo unspecified),,"inconclusive: 50.1 µM [inhibitor, partial curve, poor fit]"
CCCCC(CC)COC(=O)CCCCC(=O)OCC(CC)CCCC (stereo unspecified),inactive: -5.49%,
Cc1nc(SCC(=O)c2cccc([N+](=O)[O-])c2)n[nH]1,,"inconclusive: 17.8 µM [inhibitor, full curve, poor fit]"
Cc1onc(-c2ccccc2)c1-c1csc(COc2ccccc2)n1,,"inconclusive: 79.4 µM [inhibitor, partial curve, poor fit]"
S=C1NC2=C(CCCC2=C2SCCS2)C(c2ccccc2)N1 (stereo unspecified),,"inconclusive: 10 µM [inhibitor, full curve, poor fit]"
CCn1c(SCC(=O)N/N=C/C=C\c2ccco2)nc2ccccc21,,"inconclusive: 50.1 µM [inhibitor, partial curve, poor fit]"
Cc1cccn2c(=O)c3cc(C(=O)NC4CCCC4)c(=N)n(CCc4ccccc4)c3nc12,inactive: 18.4%,
CC(C)(C)NC(=S)N/N=C/c1c(Cl)cccc1Cl,inactive: 12.6%,
Nc1nc(Cl)c(N)c(NCC2(CO)CC(CCc3ccccc3)C2)n1 (stereo unspecified),,"inconclusive: 79.4 µM [inhibitor, partial curve, poor fit]"

Compound,"activity change, negative = inhibition",Potency
COc1cc(-c2nnc(COC(=O)c3nn(CC(C)C)c(=O)c4ccccc34)o2)cc(OC)c1OC,,"inconclusive: 79.4 µM [inhibitor, single point]"
CC1CCCCC1NC(=O)COC(=O)c1c2c(nc3ccccc13)/C(=C\c1ccco1)CC2 (stereo unspecified),,"inconclusive: 39.8 µM [inhibitor, partial curve, poor fit]"
CC(=O)Nc1cccc(NC(=O)c2ccc(C(=O)Nc3cccc(NC(C)=O)c3)nc2)c1,inactive: -1.13%,
COCCCNC(=O)c1ccccc1NS(=O)(=O)c1ccc(C)cc1,inactive: 1.2%,
O=S(=O)(Nc1cccc2cccnc12)c1cccs1,inactive: -2.61%,
O=C(N/N=C/c1cc(Cl)ccc1O)c1ccc(Br)cc1,,"inconclusive: 17.8 µM [inhibitor, full curve, poor fit]"
O=C(O)CSc1c(O)c2ccccc2[nH]c1=O,,"inconclusive: 44.7 µM [inhibitor, partial curve, poor fit]"
C/C(=N/Nc1ccc([N+](=O)[O-])cc1)c1c[nH]c2ccccc12,inactive: -28%,
O=[N+]([O-])/C=C\c1ccc(N2CCCC2)c(F)c1,,"inconclusive: 79.4 µM [inhibitor, partial curve, poor fit]"
Cc1[nH]nc(C(=O)NN=Cc2ccccc2Cl)c1N=NN(C)C,,"inconclusive: 70.8 µM [inhibitor, single point]"
COc1ccc(C(=O)Cn2c(C(C)=O)nc3ccccc32)cc1,inactive: -21%,
C/C(=N\Nc1ccc(C(=O)O)cc1)c1ccc(S(=O)(=O)NCc2ccco2)cc1,inactive: -13.5%,
O=C(c1ccncc1)N(c1ccc2oc3c(c2c1)CCCC3)S(=O)(=O)c1ccc(F)cc1,,"inconclusive: 89.1 µM [inhibitor, single point]"
Cc1cc(C)cc(NC(=O)CSc2nc3ccccc3nc2N2CCCCC2)c1,inactive: -0.918%,
COc1ccc(Nc2cnn(-c3nc4ccccc4s3)c(=O)c2Cl)cc1,,"inconclusive: 56.2 µM [inhibitor, partial curve, poor fit]"
Cc1ccc(S(=O)(=O)Nc2cccc3cccnc23)cc1,inactive: 9.54%,
O=C(Nc1ccccc1)N(C1=NCCCCS1)c1cccc2ccccc12,,"inconclusive: 79.4 µM [inhibitor, single point]"
COc1ccc2sc(/C=C/c3ccccc3O)[n+](C)c2c1,,"inconclusive: 79.4 µM [inhibitor, partial curve, poor fit]"
CC(C)(C)c1ccc(-n2nc(C(N)=O)c(O)cc2=O)cc1,,"inconclusive: 39.8 µM [inhibitor, partial curve, poor fit]"
N#CC1=C2SCN(Cc3ccco3)CN2C(=O)CC1c1ccc(Cl)cc1 (stereo unspecified),,"inconclusive: 79.4 µM [inhibitor, partial curve, poor fit]"
O=C(CCOc1ccccc1)Nc1ccnn1C1CCN(Cc2ccc(O)cc2)CC1,inactive: 18.5%,
O=S(=O)(c1ccc(-c2csc(-c3cccnc3)n2)cc1)N1CCOCC1,,"inconclusive: 35.5 µM [inhibitor, partial curve, poor fit]"

Compound,"activity change, negative = inhibition",Potency
CC(C)NC(=O)C1CCCN(c2ncnc3c2nc2n3CCCCC2)C1 (stereo unspecified),,"inconclusive: 100 µM [inhibitor, single point]"
CSc1nc2ccc3nc(NC(=O)c4cccs4)sc3c2s1,,"inconclusive: 79.4 µM [inhibitor, single point]"
Cc1ccc(NC(=S)NNC(=S)Nc2ccc(C)cc2)cc1,,"inconclusive: 56.2 µM [inhibitor, partial curve, poor fit]"
CC(NC(=O)c1ccc(F)cc1)c1ccc2c(c1)CCCC2 (stereo unspecified),inactive: -1.53%,
CCCCN1CC(COCc2ccccc2)Oc2cccc(Oc3ccc(C)cc3)c2S1(=O)=O (stereo unspecified),inactive: 25.8%,
N#Cc1ccccc1CSc1nc(O)cc(=O)[nH]1,inactive: -25.7%,
COc1ccc(C(=O)N/N=C/c2ccc(OC)c(COc3c(F)c(F)cc(F)c3F)c2)cc1,,"inconclusive: 50.1 µM [inhibitor, partial curve, poor fit]"
COc1cc(C2NCC(c3ccc(Cl)cc3Cl)c3c2[nH]c2ccccc32)cc(OC)c1OC (stereo unspecified),,"inconclusive: 112 µM [inhibitor, partial curve, poor fit]"
CSc1ccccc1OCc1cc(C(=O)N(C)Cc2ccc(C)o2)no1,,"inconclusive: 56.2 µM [inhibitor, partial curve, poor fit]"
CC(C)NC(=O)/C(C#N)=C/c1cccc(NC(=O)c2ccccc2Cl)c1,,"inconclusive: 31.6 µM [inhibitor, full curve, poor fit]"
CCc1nc(SCC(=O)c2cccc([N+](=O)[O-])c2)n[nH]1,,"inconclusive: 50.1 µM [inhibitor, partial curve, poor fit]"
Oc1c(C=Nc2ccccc2)sc(=S)n1Cc1ccccc1,inactive: -25%,
O=C(CN1C=NS(=O)(=O)c2ccc(C(F)(F)F)cc21)Nc1cccc(C(F)(F)F)c1,,"inconclusive: 89.1 µM [inhibitor, single point]"
COc1ccc(Nc2c3c(nc4ccc(NC(=O)/C=C/c5cccc(OC)c5OC)cc24)CCCC3)cc1OC,,"inconclusive: 79.4 µM [inhibitor, partial curve, poor fit]"
CC(=O)c1c(C)oc2c(Br)cc(NS(=O)(=O)c3ccc(Br)cc3)cc12,inactive: -12.4%,
Cc1ccc(C(=O)Nc2ccc(S(=O)(=O)O)c3cc(S(=O)(=O)O)cc(S(=O)(=O)O)c23)cc1NC(=O)c1cccc(NC(=O)Nc2cccc(C(=O)Nc3cc(C(=O)Nc4ccc(S(=O)(=O)O)c5cc(S(=O)(=O)O)cc(S(=O)(=O)O)c45)ccc3C)c2)c1,,"inconclusive: 7.5 nM [inhibitor, full curve, poor fit] and inconclusive: 37.7 µM [inhibitor, single point]"
CCC(=O)[C@@]1(C)[C@H](C)C[C@H]2[C@@H]3CCC4=CC(=O)C=C[C@]4(C)[C@H]3[C@@H](O)C[C@@]21C,inactive: -0.174%,
S=c1nc(-c2ccc(Cl)cc2)[nH][nH]1,,"inconclusive: 50.1 µM [inhibitor, partial curve, poor fit]"
NC(=S)n1[nH]c(-c2ccc([N+](=O)[O-])cc2)c(N=Nc2cccc([N+](=O)[O-])c2)c1=O,,"inconclusive: 79.4 µM [inhibitor, partial curve, poor fit]"
CCOc1ccc(NC(=O)c2ccco2)cc1S(=O)(=O)N1CCCC1,,"inconclusive: 89.1 µM [inhibitor, single point]"
CCOc1ccc(N(C)c2ccc(/C=C3/SC(=S)NC3=O)cc2)cc1,inactive: -45.4%,
O=C(Nc1cccc(-c2csc(Nc3ccccc3)n2)c1)c1ccccc1,inactive: -3.77%,
